{"source": "paper PMC4336329", "about": "(PLoS ONE, 2015)", "note": "In all, about 310,000 compounds went through this assay and about 2,200 (0.71%) showed an effect of 50% or more. Effects have a minus sign here. The list shows a part of the results."}
{"target": "human ether-à-go-go-related gene (hERG) potassium channel (human, UniProt Q12809)", "sequence (Q12809 whole entry, looked up)": "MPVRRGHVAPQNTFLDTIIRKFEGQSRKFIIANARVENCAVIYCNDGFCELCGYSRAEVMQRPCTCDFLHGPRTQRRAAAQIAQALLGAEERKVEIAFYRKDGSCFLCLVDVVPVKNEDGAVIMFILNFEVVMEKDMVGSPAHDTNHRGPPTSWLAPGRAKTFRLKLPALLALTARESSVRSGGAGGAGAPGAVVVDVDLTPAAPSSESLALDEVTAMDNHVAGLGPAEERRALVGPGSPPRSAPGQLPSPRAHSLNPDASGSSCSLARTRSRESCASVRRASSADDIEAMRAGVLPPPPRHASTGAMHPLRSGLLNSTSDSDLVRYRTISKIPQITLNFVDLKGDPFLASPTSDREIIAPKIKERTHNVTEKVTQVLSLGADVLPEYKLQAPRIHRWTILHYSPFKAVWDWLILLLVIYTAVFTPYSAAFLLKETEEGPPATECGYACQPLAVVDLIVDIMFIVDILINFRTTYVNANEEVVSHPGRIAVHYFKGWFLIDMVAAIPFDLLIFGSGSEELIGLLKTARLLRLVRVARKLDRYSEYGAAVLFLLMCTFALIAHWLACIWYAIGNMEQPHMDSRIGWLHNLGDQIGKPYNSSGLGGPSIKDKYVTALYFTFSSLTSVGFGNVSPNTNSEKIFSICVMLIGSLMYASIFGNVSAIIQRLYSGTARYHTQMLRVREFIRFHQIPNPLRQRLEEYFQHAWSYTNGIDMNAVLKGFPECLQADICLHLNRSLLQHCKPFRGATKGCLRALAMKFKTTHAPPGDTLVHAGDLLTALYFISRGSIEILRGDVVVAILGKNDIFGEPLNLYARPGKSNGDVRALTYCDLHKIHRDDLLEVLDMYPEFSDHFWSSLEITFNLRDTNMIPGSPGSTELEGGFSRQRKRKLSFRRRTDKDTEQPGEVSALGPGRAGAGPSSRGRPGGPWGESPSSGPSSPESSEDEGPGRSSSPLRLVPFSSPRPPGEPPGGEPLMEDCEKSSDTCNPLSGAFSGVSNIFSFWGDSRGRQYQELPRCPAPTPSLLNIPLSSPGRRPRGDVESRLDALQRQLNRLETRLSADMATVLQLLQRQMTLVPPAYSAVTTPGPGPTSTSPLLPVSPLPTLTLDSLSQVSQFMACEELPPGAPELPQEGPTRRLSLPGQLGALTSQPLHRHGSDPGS", "test": "primary screen, population patch clamp on CHO cells stably expressing hERG", "units": {"hERG current change (%, negative = inhibition) at 1uM": "%"}}
{"smiles": "CC(=O)c1cccc(N(C(=O)CNC(=O)c2ccco2)C(C(=O)NC2CCCC2)c2ccco2)c1", "note": "(stereo not shown)", "hERG current change (%, negative = inhibition) at 1uM": 10.8}
{"smiles": "COc1ccc(S(=O)(=O)Nc2ccc3oc(C)c(C(C)=O)c3c2)cc1", "hERG current change (%, negative = inhibition) at 1uM": 21.5}
{"smiles": "COc1ccc(-c2c(O)c(C#N)c(-c3ccccc3)n(-c3ccc(OC)cc3)c2=O)cc1", "hERG current change (%, negative = inhibition) at 1uM": 9.11}
{"smiles": "CCOc1ccc(NC(=O)CN(C)C(=O)c2c(-c3ccccc3Cl)noc2C)cc1OCC", "hERG current change (%, negative = inhibition) at 1uM": 0.603}
{"smiles": "Cc1cc(C)cc(NC(=O)Nc2cc(-c3ccccc3)nn2C)c1", "hERG current change (%, negative = inhibition) at 1uM": 20.2}
{"smiles": "CC(=O)c1cccc(NC(=O)C23CC4CC(C2)CC(n2cncn2)(C4)C3)c1", "hERG current change (%, negative = inhibition) at 1uM": 9.18}
{"smiles": "CC(=O)N1c2ccc(S(=O)(=O)NC(CC(=O)O)c3ccc(Br)cc3)cc2CC1C", "note": "(stereo not shown)", "hERG current change (%, negative = inhibition) at 1uM": 24.6}
{"smiles": "CC(CNCC1CCCO1)COc1cccc2ccccc12", "note": "(stereo not shown)", "hERG current change (%, negative = inhibition) at 1uM": 5.61}
{"smiles": "COc1ccccc1C(=O)N/C(=C\\c1cn(S(=O)(=O)N(C)C)c2ccccc12)C(=O)NCCCN1CCOCC1", "hERG current change (%, negative = inhibition) at 1uM": 7.97}
{"smiles": "Cc1ccc(S(=O)(=O)c2nc(Nc3ccccc3C#N)sc2Cl)cc1", "hERG current change (%, negative = inhibition) at 1uM": 7.69}
{"smiles": "COc1ccc(C2N(c3ccccc3)C(=S)N3CCCN23)cc1", "note": "(stereo not shown)", "hERG current change (%, negative = inhibition) at 1uM": 11.1}
{"smiles": "CN(C)c1oc(-c2ccccc2)nc1C#N", "hERG current change (%, negative = inhibition) at 1uM": 2.37}
{"smiles": "CCOc1cc(C2NN=C(c3ccccc3)S2)ccc1OCc1ccccc1Cl", "note": "(stereo not shown)", "hERG current change (%, negative = inhibition) at 1uM": 12.9}
{"smiles": "O=C(CN(C(=O)CCC(=O)Nc1ccccn1)C1CCCC1)NCc1ccccc1", "hERG current change (%, negative = inhibition) at 1uM": 4.06}
{"smiles": "O=C1Nc2ccc([N+](=O)[O-])cc2OC1CCN1CCN(Cc2ccc3c(c2)OCO3)CC1", "note": "(stereo not shown)", "hERG current change (%, negative = inhibition) at 1uM": -4.99}
{"smiles": "COc1ccc(/C=C(/NC(=O)c2ccccc2)C(=O)N2CCC(C)CC2)cc1", "hERG current change (%, negative = inhibition) at 1uM": 3.37}
{"smiles": "O=C1OC(=O)C2C1[C@@H]1CC[C@H]2O1", "note": "(stereo partly shown)", "hERG current change (%, negative = inhibition) at 1uM": 16.3}
{"smiles": "C[C@@H](NC(=O)c1nc[nH]c1C(=O)N[C@@H](Cc1ccccc1)C(=O)OC(C)(C)C)c1ccccc1", "hERG current change (%, negative = inhibition) at 1uM": 15.3}
{"smiles": "COc1cccc(NC(=O)c2ccc(Cn3cc([N+](=O)[O-])cn3)o2)c1", "hERG current change (%, negative = inhibition) at 1uM": -3.18}
{"smiles": "CCOc1cccc(/C=C/c2ccc3ccccc3n2)c1OC(C)=O", "hERG current change (%, negative = inhibition) at 1uM": 31.6}
{"smiles": "Cc1c(CCOC(=O)c2ccc(N3CCOCC3)c([N+](=O)[O-])c2)sc[n+]1CC#N.[Cl-]", "hERG current change (%, negative = inhibition) at 1uM": 6.84}
{"smiles": "COCCN1C(=O)c2oc3c(C)cc(C)cc3c(=O)c2C1c1cccc(O)c1", "note": "(stereo not shown)", "hERG current change (%, negative = inhibition) at 1uM": 12.1}
{"smiles": "Cl.O.O=C1CC(=C(c2ccccc2)c2ccccc2)C(=O)N1CCN1CCN(c2cccc(Cl)c2)CC1", "hERG current change (%, negative = inhibition) at 1uM": 11.9}
{"smiles": "Nc1ccc(C(=O)N2CCCC2)cc1", "hERG current change (%, negative = inhibition) at 1uM": 7.82}
{"smiles": "CCOC(=O)c1ccc2ncc(C(=O)OCC)c(NCCN3CCOCC3)c2c1", "hERG current change (%, negative = inhibition) at 1uM": -15.2}
{"smiles": "Cn1c(=O)c2cc(S(=O)(=O)Nc3cccc(F)c3)ccc2n(C)c1=O", "hERG current change (%, negative = inhibition) at 1uM": 11.7}
{"smiles": "O=C1C2C3c4ccccc4C(c4ccccc43)C2C(=O)N1c1cccnc1", "note": "(stereo not shown)", "hERG current change (%, negative = inhibition) at 1uM": 5.28}
{"smiles": "COc1ccc(NC(=O)NC2CCN(C(C)C)CC2)c(OC)c1", "hERG current change (%, negative = inhibition) at 1uM": 0.138}
{"smiles": "O=C(NCc1ccccc1)C1=C[C@H](c2ccccc2)C[C@H](OCc2ccc(CO)cc2)O1", "hERG current change (%, negative = inhibition) at 1uM": 5.85}
{"smiles": "Cc1cc(NC(=O)c2ccccc2)n(C)n1", "hERG current change (%, negative = inhibition) at 1uM": 15.5}
{"smiles": "C=CCOc1c(Br)cc(CNn2c(C)n[nH]c2=S)cc1OC", "hERG current change (%, negative = inhibition) at 1uM": 14}
{"smiles": "Cc1nnc(NCCc2ccccc2)c2ccccc12", "hERG current change (%, negative = inhibition) at 1uM": 7.24}
{"smiles": "CCC(C)N(C(=O)Cn1cnc2c1c(=O)n(C)c(=O)n2C)C1CCS(=O)(=O)C1", "note": "(stereo not shown)", "hERG current change (%, negative = inhibition) at 1uM": 17.5}
{"smiles": "O=[N+]([O-])c1ccc(Cl)c(/C=N/N2CCN(Cc3ccc(Cl)cc3)CC2)c1", "hERG current change (%, negative = inhibition) at 1uM": -0.568}
{"smiles": "CC(Oc1ccc(Cl)cc1Cl)C(=O)NCCCN(C)C", "note": "(stereo not shown)", "hERG current change (%, negative = inhibition) at 1uM": 0.712}
{"smiles": "O=c1oc2ccccc2c(NC(c2ccccc2)c2ccccc2)c1[N+](=O)[O-]", "hERG current change (%, negative = inhibition) at 1uM": 2.24}
{"smiles": "CCN1CCN(C2=NC(=O)/C(=C/c3ccc(C)o3)S2)CC1", "hERG current change (%, negative = inhibition) at 1uM": -9.05}
{"smiles": "Cc1ccc(NC(=O)c2nnn(CC(=O)Nc3ccccc3)c2N)cc1C", "hERG current change (%, negative = inhibition) at 1uM": 10.4}
{"smiles": "CCOC(=O)c1cnc(SCC(=O)NNC(=O)c2ccco2)nc1N", "hERG current change (%, negative = inhibition) at 1uM": 11.5}
{"smiles": "COc1ccc(OCCNC(=S)Nc2cccc3ccccc23)cc1", "hERG current change (%, negative = inhibition) at 1uM": 4.59}
{"smiles": "Cc1ccccc1S(=O)(=O)Cc1ccc(C(=O)NCCCN2CCC(C)CC2)o1", "hERG current change (%, negative = inhibition) at 1uM": 0.269}
{"smiles": "CC(C(=O)NCc1cccnc1)c1ccc([N+](=O)[O-])cc1", "note": "(stereo not shown)", "hERG current change (%, negative = inhibition) at 1uM": 5.41}
{"smiles": "CC1(C)CC(=O)C2=C(C1)c1c(ccc3ccccc13)NC2c1ccc(C(=O)O)cc1", "note": "(stereo not shown)", "hERG current change (%, negative = inhibition) at 1uM": 30.1}
